The text below walks through data of patent publication US11912755B2, “Endostatin fragments and variants for use in treating fibrosis” (iBio, Inc., priority 2015, dated 2024).

In data set [1] the test system is bleomycin s.c. dermal model of SSc. In words: Osmotic pump s.c. administration in bleomycin mouse dermal model of SSc. In kind it is in vivo. The settings on record: 460 μg s.c. by pump for seven days after 7 days of bleomycin; day 35. The method, then:
C57BL/6 mice were given 33 mU of bleomycin for seven days using mini-osmotic pumps surgically implanted on the backs of the mice to deliver bleomycin subcutaneously. On day 7, the pumps were removed and replaced with pumps containing 460 μg of iBio-CFB03 administered s.c. for an additional seven days. Mice were sacrificed at day 35 and skin from the back on the opposite side of the pump site was excised, formalin-fixed and embedded in paraffin. Skin sections were stained with H&E (FIG. 43) and dermal thickness (FIG. 44) was measured.

Another data set deals with human skin explants. In words: Ex vivo human skin TGF-β model of SSc, hydroxyproline assay. The format is cell-based. The following applies: single intradermal dose 100 μg concurrently with 10 ng TGF-β; one week. On the procedure: Efficacy of iBio-CFB03 was assessed in human skin models of SSc induced by injection of TGF-β. TGF-β induces pathological changes in skin characteristic of SSc. iBio-CFB03 attenuated TGF-β induced fibrosis in human skin when administered concurrently with TGF-β. When administered concurrently with 10 ng TGF-β, a single intradermal dose of 100 μg iBio-CFB03 prevented the increased collagen when evaluated one week post dosing via hydroxyproline assay (FIG. 45).
Human skin was obtained from abdominal surgery, trimmed, fat cleaned, and cut into ˜1×1 inch pieces. Pieces were maintained in organ culture in an air-liquid interface. Pieces were injected with vehicle (V), TGF-β (T) or TGF-β+iBio-CFB03 (T+iBio-CFB03) in a volume of 100 μl. Doses: Vehicle=100 μl of 1×PBS; T=10 ng of TGF-β; T+iBio-CFB03=10 ng TGF-β+100 μg iBio-CFB03. After one week (7 days), 3 mm punches of skin were obtained and hydroxyproline measured in the skin punches. The data represent n=3/group. * denotes p<0.05.

Data set [2] is described as follows: Simulated Gastric Fluid (pepsin) digestion. In kind it is in vitro ADME. The settings on record: by the 300 second time point. The method, then: Equal amounts of purified END-55 from Novici (PEG purified) or Caliber (Protein A purified) were digested in Simulated Gastric Fluid (SGF) for 0, 5, 30, 45, 60, or 300 seconds. The reaction was stopped with 160 mM sodium carbonate. Samples were then run on a 4-20% SDS-PAGE gel and imaged on a stain-free gel imager for total protein (FIG. 48, left panel). Gel was then transferred to nitrocellulose and probed with either a chicken anti-E3 antibody (FIG. 48, middle panel) or anti-human Fc antibody (FIG. 48, right panel) for Western blot. […] Differences between the Caliber and Novici samples appear to be a ˜14 kD band which is more prominent in the early time points for Caliber material and less glycosylated E3-Fc in the Caliber samples. The ˜10 kD E3-positive band is slightly weaker in the Caliber samples. All images are scaled and aligned with each other.

The test system of data set [3] is bleomycin-induced pulmonary fibrosis. In words: Bleomycin mouse model of pulmonary fibrosis, plant-made E3 variants oral or IV. The settings on record: for efficacy of IV versus oral administration: IV 100 or 200 μg vs oral 50 μg; for bleomycin-induced pulmonary fibrosis: oral or IV, concomitantly or after fibrotic trigger (d8); for fibrosis, treatment eight days after bleomycin: orally and intravenously, only three mice per group. In kind it is in vivo. From the text: Peptides were expressed in plants using the IBIOLAUNCH™ gene expression platform. C57BL/6 mice were given bleomycin intratracheally in conjunction with END-55 (also referred to herein as E3-Fc (C67A) and CFB03) intravenous (IV) administration, or followed by IV administration of END-55 eight days after bleomycin. The mice were sacrificed at day 12 and lung samples were taken for both hematoxylin and eosin (H&E) staining and hydroxyproline assay.
Pulmonary fibrosis was induced in mice using bleomycin. Animals were treated orally with E3 variants or phosphate buffered saline (PBS). Lung histology was examined, showing that orally delivered E3 variants (E3-6His-KDEL (SEQ ID NO:19) and Expanded E3-6His-KDEL(SEQ ID NO:19)) prevented bleomycin-induced pulmonary fibrosis.
For the experiments shown in FIGS. 21 and 22, pulmonary fibrosis was again induced in mice using bleomycin. Controls were administered PBS, while experimental samples also had END55 (also referred to as E3-Fc (C67A)) administered orally or intravenously. Hydroxyproline content was measured in the lung.
To evaluate tissue fibrosis/collagen deposition, a hydroxyproline quantification assay was performed. Lung samples were removed and digested overnight at 110° C. in 1 mL 6 N HCl. After neutralization with 6 N NaOH, the pH was adjusted within the range of 6.0-9.0 and samples were mixed with 1 mL chloramine T solution (1.4% chloramine T, 10% isopropanol, 0.5 M sodium acetate, pH 6.0) for 20 minutes at room temperature. Following treatment with chloramine T solution, samples were mixed with 1 mL Erlich's solution (14.9% p dimethylaminobenzaldehyde, 70% isopropanol, 20% perchloric acid; Sigma-Aldrich) and incubated for 15 minutes at 65° C. Aliquots were transferred to 96-well plates, and absorbance was measured at 570 nm. Collagen content was calculated by comparison with a standard curve generated with cis-4 hydroxy-L-proline (Sigma-Aldrich), using the conversion factor of 1 μg hydroxyproline corresponding to 6.94 μg. This assay has been used in the studies described below using iBio-CFB03 and is used in non-clinical studies in this mouse model.
C57BL/6 mice were given bleomycin i.t. in conjunction with iBio-CFB03 intravenous (IV) administration or followed by IV administration of iBio-CFB03 eight days after bleomycin. The mice were sacrificed at day 12 and lung samples were taken for both H&E staining (FIG. 40) and hydroxyproline assay (FIG. 41). A diagram of the experimental design can be found in FIG. 39. […] However only 3 mice were treated in each of these groups. These experiments were therefore repeated with iBio-CFB03 administered IV at 200 μg/mouse (n=9) or orally at 50 μg/mouse (n=9) (FIG. 42).

A short description of data set [4]: iBio-CFB03 solubility and storage stability. The format is physicochemical. On the procedure:
iBio-CFB03 is a multimeric protein approximately 1.2 mega-Daltons (MDa) with a repeating monomer with two major glycoforms between 31 and 33 kDa.
Purity of the TFF retentate was evaluated with size exclusion chromatography (SEC) and compared to non-infiltrated retentate (FIG. 30). […] The retentate is largely comprised of iBio-CFB03 product, with plant host cell proteins contributing the remainder. The product is soluble in PBS and saline at a level of 50 mg/mL.

Data set [5] can be described thus: Solubility of Ig Fc fusions to E3 in plant lysates. The format is physicochemical. The following applies: plant lysate, non-denaturing (normal) grind buffer. From the text:
For IgG Fc expression, clarified plant lysates were run on a Western blot (Genway chicken E3 antibody). Fusions included E3 (C67A) linked to either the N-terminus of the hinge+Fc domains of IgG2, IgG3, or IgG4, or to the C-terminus of the hinge +Fc domain of IgG1. […] The E3-IgG1 fusion expressed well. The non-reducing samples all appeared to form large structures, although perhaps not as large as the END-55 (iBioCFB03) BMW multimers (FIG. 24).
For IgA/M expression, clarified plant lysates were ground in either denaturing (total) or non-denaturing buffer (soluble) and run on a Western blot (Genway chicken E3 antibody). Fusions contained E3 (C67A) linked to the N-terminus of the hinge+Fc domains of IgA1, IgA2, or IgM. The IgA1 and IgA2 fusions were insoluble in normal grind buffer. The IgM fusion had very low expression. J-chain co-expression had no obvious effect.

“Also recorded” adds a separate entry of the source.

B1: iBio-CFB03: SEQ ID NO:16; E3 with third cysteine changed to alanine fused to human IgG1 Fc domain; plant-made (protein)
chain: MGKMASLFATFLVVLVSLSLASESSASYCETWRTEAPSATGQASSLLGGRLLGQSAASCHHAYIVLAIENSFMT[… human IgG1 Fc …]
modifications: E3-Fc amino acid sequence including a secretory sequence, a portion of human endostatin having a C67A mutation, and an IgG Fc domain
notes: E3 with third cysteine changed to alanine fused to human IgG1 Fc domain; plant-made
As to B1, the dermal thickness result in data set [1] is given as “reduced dermal thickness as”. Moreover, the “TGF-β induced fibrosis / collagen increase (hydroxyproline)” value in the data set with human skin explants is reported as “prevented; also recorded: TGF-β, significantly attenuated”. The “stability of liberated E3 fragment in SGF” value in data set [2] is “largely degraded”. Moreover, in data set [3] (IV 100 μg or 200 μg, vs bleomycin only, day 12), the “pulmonary fibrosis by hydroxyproline assay” value was “reduced pulmonary fibrosis”. Further, the “efficacy of IV versus oral administration” value in data set [3] is “at least as efficacious”; in data set [3] (listed as E3-Fc) it was “comparable”. Moreover, the “minimum dose at which significant effects were observed” value in data set [3] (mouse-bleomycin model) turned out to be 20 μg per animal. Besides, the bleomycin-induced pulmonary fibrosis entry is given as “ameliorated; also recorded: reduced pulmonary fibrosis” in data set [3], “prevented” in data set [3] (listed as END55) and “ameliorated” in data set [3] (listed as END-55). Moreover, the “fibrosis, treatment eight days after bleomycin” value in data set [3] was “appeared to reduce fibrosis”; in data set [3] (listed as E3-Fc) it was “potential to reverse lung fibrosis”; in data set [3] (listed as END55) it was “potential to reverse lung fibrosis”; in data set [3] (listed as END-55) it was “appeared to reduce fibrosis”. In addition, the “pulmonary fibrosis, repeat experiment” value in data set [3] (repeat experiment n=9, IV 100 μg/mouse as printed, vs bleomycin only) is “reduced pulmonary fibrosis”. The “solubility, stability relative to E3/E4” value in data set [4] is “improves the solubility, stability”. In addition, the solubility in data set [4] (in PBS and saline) is reported as 50 mg/mL. In data set [4] (stored at 4° C. in phosphate buffered saline (PBS)), the “solubility and stability on storage” value is “soluble and stable”.

B2: E3_C67A-Fc_IgG4: SEQ ID NO: 24 (protein)
chain: MGKMASLFATFLVVLVSLSLASESSASYCETWRTEAPSATGQASSLLGGRLLGQSAASCHHAYIVLAIENSFMT[… human IgG4 Fc …]
modifications: E3_C67A-Fc_IgG4 fusion
B2: the solubility result in data set [5] is reported as “soluble”.
